62 sequences from the supplement of paper PMC10681739 can be followed below.

± gives the standard deviation of the averaged measurements. The full ranking holds about 4,000 sequences; the median of “arbitrary fluorescence units” is about 830, and the highest 2% start at about 6,500. Most of the strongest results are missing from this list.
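Also: Full-length recombinant human RUNX1 bound to double-stranded DNA microarray spots, detected with an Alexa488-labelled secondary antibody after the anti-RUNX1 primary, read as scanned spot fluorescence.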

In this test the target is RUNX1 (UniProt Q01196). Briefly: RUNX1 binding intensity (PBM fluorescence), RUNX1 alone (arbitrary fluorescence units); higher = stronger binding. The note with it: RUNX1 concentration 2 nM; ETS1 concentration 0 nM. As for the experimental part: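 gcPBM on 36-bp genomic-derived probes (partner site mutated) containing one RUNX1 site and no ETS1 site. Recombinant human RUNX1 (2 nM) was incubated alone or with ETS1 (25 nM) and detected by anti-RUNX1 antibody fluorescence. Values are medians over 4 replicate spots (not normalised). The probes sit in constant array flanks that are not printed.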
UniProt Q01196, sequence (Q01196 whole entry): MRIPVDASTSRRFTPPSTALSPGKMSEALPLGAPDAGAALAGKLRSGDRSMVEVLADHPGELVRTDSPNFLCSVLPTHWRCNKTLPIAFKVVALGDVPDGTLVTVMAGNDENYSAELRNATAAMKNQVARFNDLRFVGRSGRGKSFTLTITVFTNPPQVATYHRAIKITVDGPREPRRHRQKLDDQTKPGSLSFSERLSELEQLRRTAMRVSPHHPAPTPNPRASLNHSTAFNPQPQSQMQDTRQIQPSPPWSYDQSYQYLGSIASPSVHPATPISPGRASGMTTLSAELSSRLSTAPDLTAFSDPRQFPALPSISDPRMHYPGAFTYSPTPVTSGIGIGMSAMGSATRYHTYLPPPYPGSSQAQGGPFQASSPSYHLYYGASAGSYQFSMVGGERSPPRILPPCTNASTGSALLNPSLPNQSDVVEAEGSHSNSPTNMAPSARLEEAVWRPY
GGCTCGGCAAACAGCCGGCTCCGCGGTGGAACGGGA had an RUNX1 binding intensity of 705. With GCGTTCGGCTGGTCGTGGGCTTTCTGCGGCCGCTGA the figure was 835. The figure for GCTCTTCACTGCCTGTGGCTCCCGCAGCGGCCGCCG is 1030; for AGCTGGCTGTGGTCAGGGTGGAATCAGAAAGAGAAA it is 1100; for TGGGAGACCACAAAGCCCAAGGCCGAAGCCATGTCA it is 899.

Sequence GCTCAGGCTGCTGTCTGTGCACTGTTAGGTGGTTTG displayed an RUNX1 binding intensity of 708. Take CCGCTCCCGGGACGCGAATCGCTCTGCGGCTGCGTC: the RUNX1 binding intensity worked out at 768. With CCTCCTTCGGCCACAACACGATCACTTTCGGTTGGT the figure was 980. With AGCGCAGCCGCAGACTCCGCTCAGATCCCCGGGTCG the figure was 758. As for TACAGTTCCACTTGCTGTGATTTCAGTTACCCACAG, the RUNX1 binding intensity stood at 825. The figure for AGGCAAAAGCCACAGCCACACACGATGGGGCCTCCC is 785; for GTTGAGGTGTCCCACAAACCAAACAGGGTGTGGGGG it is 964; for CCGACCCCAGCTTGCCGGGGTTGCGGCCCTGCCTCC it is 696.

In turn, GCGCGGCCCGCAGCGCCACACAGATTCCCGGGCGCC yielded an RUNX1 binding intensity of 757. The figure for TTCAAATACCACAGCCCAATATTGGTATTGCCGAGC is 1170; for CATTTCTTCGTTCCTTGGCCCCCGCAGTGCGCCCGC it is 1650.

For ACGTTCGGCCCCGCACACTCAGCATTTACGGCCTCC, the RUNX1 binding intensity worked out at 945. With CCTGCGGATCACGCAAGTGGCTGCGGTCGGCGCCAT the figure was 992; with AACAACTGACTGGACAGAACACAGCCACAAAACACG, 1040 ± 11. On to CTTAGGAATTCCCGTAGATGGTGGTCTGTGCTAAGG, for which the RUNX1 binding intensity is 743. In the case of CTCCTTTGCCCGCAGCGGCTGGTCCAGTTTACATCA, the RUNX1 binding intensity came out at 1100. The figure for TCTGCGGCCCTACCTCAGCCAAGGACCTCCTCAGAA is 893. For ACCTCTGCGGCGTCACTGGGAGCCCGACGAAAAACT, the RUNX1 binding intensity worked out at 808.

Consider GTGGATTTCACATGCTGTCCTAGCGGTATGTTTGTC, for which the RUNX1 binding intensity amounted to 733. The figure for CTCTGGCAGGGAGCTCTGAGGGCTAAACCACAAAAA is 1560.

GCCTGAGCGCAAACCCGGCGCCACCACAAGATGGCA gave an RUNX1 binding intensity of 943. The figure for CCTCAATTGCCTGGCCAGAGAAACCACTGCCTCTCA is 1080; for GCCGCCGTTGCCTGATTGGTTGTGGGTGGCTACCTC it is 764; for CTGTCATCTTTCTGACAGCACGCCCACAAAGGACCA it is 804. With CTTTTTGATCTCCTCAAGCATCCCACAAATACACAG the figure was 1180; with TCTCCTGTGGCCACGGCTGAAAACCTACATTCCGTC, 960. With GAGAAACCTCAGGCATGGCCGGGCCACCAGCAAAAC the figure was 769; with GGTTTGGTGGTTTGGTGGCAGCATGAAGGTAAGGGA, 1740; with TGGCAGCAAACCACGGAGGCTTCTCGGAGGTGCAGA, 720. Regarding GGCGCCTCTTTGCGCCCCCGCCCACAATCGAGCGCA, the RUNX1 binding intensity is 826. The figure for GAGGCGTTGCCGCCTCCTTTTCGCGGTTGCCTTCTC is 988; for TGTGTCAATTCCCTATCTGTTGCGGTTGTTCACTCC it is 1150. The figure for ACAACCCGAAAGTTGGCGCAGCGCGGTTGCCAATGG is 741; for CACTGCCTGTCAAAGCCAGTTCCTTAACCGCTTAGG it is 854; for GGATGGCCGAAGAGGCGGCTGAGGCCGCAGGACGTG it is 811. The figure for ACCATTCTGTGGCTTTCTGGTTTCCATCCTTTTTGG is 1680; for TTGCGGGTCCACCTCTGCGCTTCTCCTGCCTGATCA it is 724. The sequence CTCCCACTGTGGTTGCCCCCTTGCTCTCAGTGGCAC returned an RUNX1 binding intensity of 902. The figure for TATATGCACAGGCAGTCCCTTACAACCCACTCTGTT is 894; for CCGGCAAACACGGGAGAGCGACCGAAACCGCAATCA it is 5260. The figure for GCAGAAGAGGAACTGGTTTGCCTGTGCGGTGGGGGA is 782. With GGCCTTGCGGCGTCTCTGCTGCTTGCGCCTTCCCGG the figure was 763; with GGGCAATGTGGTCGCCAGACCATGCTGTCACTTAGG, 813. On to TGGGCTGCCTCTCCATTATCCTAATTAGGTGGTTTG, for which the RUNX1 binding intensity worked out at 698. In turn, GACAAAGAGGCAGTCCCCAAAAACCACAATAACAGT displayed an RUNX1 binding intensity of 1610. With GAACGGTGTGGCCACGAGAGTCTAGAGGAGACCAAC the figure was 821; with AATTGAGACAGGCAATGTTGGTTTGTGGTCAGGCAC, 1080; with CCGCGTCCTCAGCGGTCCGGCCGGGAGTCACCTGAA, 813 ± 28. The figure for ACTCTGCGGTGTGGCCCTGAGCAAGTTCCTTCATGT is 2750.

Regarding CCAGTTCCCCCATCACTTTGAATTGTGGTTCTTCTC, the RUNX1 binding intensity was 1130. The figure for AGTCTGTGGTAATTTGTTATGTAGCGATAGGAGGTG is 1250; for AGTGCGGTAATGAGTCATTGTTTATAGGCAGCACCC it is 846. Sequence ACTTAGTGAAGTCTCCTTCACTTGGTTTTGCTCTTC had an RUNX1 binding intensity of 822.

CAGTTTACCGCACGGTGGGGCCTGTCTCCAGAATCG yielded an RUNX1 binding intensity of 1090. With GCTCTGCGGCCTCGCGCCATCGTTTTCGGTGGGCAG the figure was 788; with GTGACGGCTATCCACCGGGCCCTGTGGTTTCCAACA, 896; with ATAGACTCAGCAAGTGATTGTGGTAAGATTCTATAT, 851.
